Test results taken from the antibiotic and cytotoxicity screens of Wong et al. (2023).
Some of the results follow.

Tests used:
HSkMC = human skeletal muscle cells; experiment: cytotoxicity call (relative viability < 0.9); details: 10 µM
HepG2 = experiment: cytotoxicity call (relative viability < 0.9); details: 10 µM
S. aureus RN4220 = experiment: growth inhibition call (relative growth <= 0.2); details: 50 µM

Structure (SMILES): C[C@@H]1CCCCO[C@@H](CN(C)Cc2ccc(C(=O)Nc3ccccc3N)cc2)[C@@H](C)CN([C@H](C)CO)C(=O)c2cc(NS(=O)(=O)c3ccc(F)cc3)ccc2O1
- cytotoxicity call (HSkMC): inactive
- cytotoxicity call (HepG2): inactive
- growth inhibition call (S. aureus RN4220): inactive

Structure (SMILES): C[C@H]1CN([C@@H](C)CO)C(=O)Cc2cc(NS(=O)(=O)c3cccs3)ccc2O[C@@H]1CN(C)S(=O)(=O)c1ccccc1
- cytotoxicity call (HSkMC): inactive
- cytotoxicity call (HepG2): inactive
- growth inhibition call (S. aureus RN4220): inactive

Structure (SMILES): C[C@@H]1CN([C@H](C)CO)C(=O)c2cccc(NC(=O)Nc3cccc4ccccc34)c2O[C@@H]1CN(C)Cc1ccc(C(F)(F)F)cc1
- cytotoxicity call (HSkMC): inactive
- cytotoxicity call (HepG2): inactive
- growth inhibition call (S. aureus RN4220): inactive

Structure (SMILES): C[C@H](CO)N1C[C@H](C)[C@@H](CN(C)C(=O)Nc2ccc(C(F)(F)F)cc2)Oc2ccc(NC(=O)CCC(F)(F)F)cc2CC1=O
- cytotoxicity call (HSkMC): inactive
- cytotoxicity call (HepG2): inactive
- growth inhibition call (S. aureus RN4220): inactive

Structure (SMILES): COc1ccc(S(=O)(=O)N(C)C[C@H]2Oc3ccc(NC(=O)CCC(F)(F)F)cc3CC(=O)N([C@H](C)CO)C[C@H]2C)cc1
- cytotoxicity call (HSkMC): inactive
- cytotoxicity call (HepG2): inactive
- growth inhibition call (S. aureus RN4220): inactive

Structure (SMILES): C[C@@H]1CCCCO[C@H](CN(C)C)[C@@H](C)CN([C@@H](C)CO)C(=O)c2cc(NC(=O)Nc3cccc4ccccc34)ccc2O1
- cytotoxicity call (HSkMC): inactive
- cytotoxicity call (HepG2): inactive
- growth inhibition call (S. aureus RN4220): inactive

Structure (SMILES): CC(C)n1c(=S)[nH]c2ccccc21
- cytotoxicity call (HSkMC): inactive
- cytotoxicity call (HepG2): active
- growth inhibition call (S. aureus RN4220): inactive

Structure (SMILES): Cc1noc(C)c1NC(=O)Nc1ccc2c(c1)C(=O)N([C@H](C)CO)C[C@H](C)[C@H](CN(C)C(=O)Nc1ccc3c(c1)OCO3)OCCCC[C@H](C)O2
- cytotoxicity call (HSkMC): inactive
- cytotoxicity call (HepG2): inactive
- growth inhibition call (S. aureus RN4220): inactive

Structure (SMILES): COc1ccc(NC(=O)Nc2ccc3c(c2)C(=O)N([C@@H](C)CO)C[C@H](C)[C@@H](CN(C)C(=O)Nc2ccc(C(F)(F)F)cc2)OCCCC[C@H](C)O3)cc1
- cytotoxicity call (HSkMC): inactive
- cytotoxicity call (HepG2): inactive
- growth inhibition call (S. aureus RN4220): inactive
